According to PubChem BioAssay AID463254 (National Center for Advancing Translational Sciences (NCATS), 2010):
The campaign covered roughly 330,000 compounds. About 40 (0.01%) were called active. Calls come from the whole dose curve; as a rule, active = well fitted inhibition curve with a large enough effect; inconclusive = small, poorly fitted or top-dose-only effect, or effect the other way; inactive = flat fitted curve, though single readings scatter. The list shows a part of the results, in another mix than the full data.

Target: Ubiquitin carboxyl-terminal hydrolase 2 (Homo sapiens) (UniProt O75604)
Experiment: qHTS Assay for Inhibitors of Ubiquitin-specific Protease USP2a Using CHOP2 as the Reporter
Conditions: USP2 core, Ub-CHOP2 coupled fluorogenic reporter, 485/531; series mostly up to 38.3 µM; activity change, negative = inhibition: at the top concentration
From the text: NIH Molecular Libraries Screening Centers Network [MLSCN] NIH Chemical Genomics Center [NCGC] MLSCN Grant: XO1-MH079852-01 PI Name: Nicholson, Ben. Progenra Inc, Malvern, PA NCGC Assay Overview: Homeostasis of cellular proteins is maintained through a combination of synthesis and degradation. The pathway that accounts for the majority of protein degradation is the ubiquitin-proteasomal pathway. Ubiquitin (Ub) is highly conserved in all cells and the generation of a multi-Ub chain typically targets proteins for degradation by the proteasome. However, ubiquitination is highly reversible and dynamic. Deubiquitination, the reverse process, is catalyzed through the action of enzymes referred to as isopeptidases or deubiquitinating enzymes (DUBs). This group of enzymes is collectively responsible for maintaining adequate pools of free ubiquitin and regulating the ubiquitination status of cellular proteins. The class of DUBs referred to as the ubiquitin-specific proteases (USP) family functions endoproteolytically to cleave Ub chains from a wide range of protein substrates. USP2a deubiquitinates fatty acid synthase (FASN) which has recently been identified as an emerging oncology target. To identify inhibitors of USP2a a cell-free assay was employed. […] The reporter enzyme chosen is an enterokinase called CHOP2, which is activated when the Ub is cleaved by USP2. The free and now activated reporter can subsequently act on its reporter substrate. Thus, this coupled assay gives a fluorescent read-out at excitation/emission wavelengths of 485/531. The assay was developed by Progenra, Inc. and has been licensed for sale by LifeSensors, Inc. as Ub-CHOP2-Reporter-Kit (#PR1101).
NCGC Assay Protocol Summary: The assay buffer, prepared fresh at the day of the assay, contains 20mM Tris-HCl pH 8.0, 2mM CaCl2, 2mM beta-Mercaptoethanol, 0.05% CHAPS. 3ul of 20nM (10nM final) USP2 core, which is stored on ice, is dispensed into a medium-binding black solid Kalypsys 1,536 well plate using the Kalypsys dispenser. The assay plate is then pinned with 23nL compound with the Kalypsys pintool in columns 5-48. The controls are pinned as follows: column 1 two-fold dilutions of 2M NEM in duplicate; column 2 2M NEM (final concentration 38.2mM); column 3&4 DMSO. The assay plate is incubated at RT for 30min. Subsequently, 1.5uL of 100nM (25nM final) Ub-CHOP2 and 1.5uL of 100nM (25nM final) Reporter Substrate (both stored on ice and protected from light) were dispensed into the plate using the Kalypsys dispenser. Plates were read after 60min RT incubation on a ViewLux (Perkin Elmer) plate reader using the following wavelengths Ex 485nm /Em 531nm. Data were normalized to the to AC100 inhibition (NEM). Concentration-response curves were fitted to the normalized data and the concentration-response curves were then classified based on curve quality (r2), response magnitude and degree of measured activity. The time zero reading was used to flag fluorescence artifacts. Keywords: ubiquitination, deubiquitination, proteases, profluorescent, MLSMR, MLPCN, NIH Roadmap, qHTS, NCGC
Potency is the fitted concentration of half-maximal effect.

Chain of UniProt O75604 (O75604 whole entry, looked up): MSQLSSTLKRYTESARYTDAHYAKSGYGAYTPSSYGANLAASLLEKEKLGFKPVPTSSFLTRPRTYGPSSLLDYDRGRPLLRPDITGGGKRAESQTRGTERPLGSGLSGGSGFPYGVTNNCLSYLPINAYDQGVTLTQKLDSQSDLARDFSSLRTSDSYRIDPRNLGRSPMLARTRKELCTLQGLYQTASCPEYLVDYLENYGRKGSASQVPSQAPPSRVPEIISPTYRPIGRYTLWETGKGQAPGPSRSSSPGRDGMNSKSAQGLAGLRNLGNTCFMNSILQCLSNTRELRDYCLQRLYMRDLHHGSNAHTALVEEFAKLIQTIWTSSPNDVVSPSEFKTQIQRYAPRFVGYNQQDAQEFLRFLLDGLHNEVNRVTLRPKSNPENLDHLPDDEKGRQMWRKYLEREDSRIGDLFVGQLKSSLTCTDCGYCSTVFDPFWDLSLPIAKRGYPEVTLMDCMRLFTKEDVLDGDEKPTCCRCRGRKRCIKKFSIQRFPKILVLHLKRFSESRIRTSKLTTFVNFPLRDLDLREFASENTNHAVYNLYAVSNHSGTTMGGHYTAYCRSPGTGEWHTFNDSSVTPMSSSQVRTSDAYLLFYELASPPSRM

| SMILES | activity change, negative = inhibition | Potency |
| --- | --- | --- |
| O=C1OC[C@@H]2CCCN2C(=O)[C@@H](CC(=O)N(CCO)Cc2ccccc2)C/C=C\C[C@H]1Cc1ccc(F)cc1 | inactive: -1.12% | – |
| COC(=O)C1=C(C)N(Cc2ccccc2)C(=NCCc2c[nH]c3ccccc23)N[C@H]1c1ccccc1 | inactive: 3.86% | – |
| O=C(OC[C@H]1O[C@@H](OC(=O)c2cc(O)c(O)c(OC(=O)c3cc(O)c(O)c(O)c3)c2)[C@H](OC(=O)c2cc(O)c(O)c(OC(=O)c3cc(O)c(O)c(O)c3)c2)[C@@H](OC(=O)c2cc(O)c(O)c(OC(=O)c3cc(O)c(O)c(O)c3)c2)[C@@H]1OC(=O)c1cc(O)c(O)c(OC(=O)c2cc(O)c(O)c(O)c2)c1)c1cc(O)c(O)c(OC(=O)c2cc(O)c(O)c(O)c2)c1 | – | active: 5.01 µM |
| COc1ccc(-c2csc(N3CCN(C(=O)c4ccco4)CC3)n2)cc1 | – | active: 11.2 µM |
| C=CC[C@@H](CC(=O)N[C@@H](CO)Cc1ccccc1)C(=O)N[C@@H](COC(=O)[C@H](CC=C)CC(=O)OC(C)(C)C)Cc1c[nH]c2ccccc12 | inactive: -0.524% | – |
| N[C@@H](Cc1cc(I)c(Oc2ccc(O)c(I)c2)c(I)c1)C(=O)O | inactive: 0.705% | – |
| NC(=NCCCCCCN=C(N)/N=C(\N)Nc1ccc(Cl)cc1)/N=C(\N)Nc1ccc(Cl)cc1 | – | inactive |
| Cc1c(N=C/C=C2/N(C)c3ccccc3C2(C)C)c(=O)n(-c2ccccc2)n1C | inactive: 2.29% | – |
| C=CC[C@@H](CC(=O)N[C@H](CO)Cc1ccccc1)C(=O)N[C@@H](COC(=O)[C@@H](CC=C)CC(=O)OC(C)(C)C)Cc1c[nH]c2ccccc12 | inactive: 1.96% | – |
| C[c-]1[c-](C)[c-](C)[c-](C)[c-]1C.[Fe].c1cc2nccc(N3CCCC3)[c-]2c1 (centres undefined) | inactive: 3.87% | – |
| O=C1OC[C@H]2CCCN2C(=O)[C@@H](CC(=O)N(CCO)Cc2ccccc2)C/C=C\C[C@H]1Cc1ccc(F)cc1 | inactive: -9.19% | – |
| O=C1OC[C@H]2CCCN2C(=O)[C@@H](CC(=O)N(CCO)Cc2ccccc2)C/C=C\C[C@@H]1Cc1ccc(F)cc1 | inactive: 0.284% | – |
| CC(C)(C)OC(=O)C[C@@H]1C/C=C\C[C@H](CC(=O)N(CCO)Cc2ccccc2)C(=O)NC[C@@H](c2ccccc2)OC1=O | inactive: 0.665% | – |
| C=CC[C@@H](CC(=O)N[C@@H](CO)Cc1ccccc1)C(=O)N[C@H](COC(=O)[C@@H](CC=C)CC(=O)OC(C)(C)C)Cc1c[nH]c2ccccc12 | inactive: 2.16% | – |
| Cc1ccc(NC(=O)CN2C(=O)N/C(=C\c3ccco3)C2=O)cc1 | inactive: -0.309% | – |
| O=C(/C=C/c1ccc(O)c(O)c1)OC(Cc1ccc(O)c(O)c1)C(=O)O (centres undefined) | inactive: 2.7% | – |
| C#CCOCCOCCOCCNc1nc(N2CCN(C(=O)CCCCCCCCCCNC(=O)[C@H](CCCN=C(N)N)n3cc(C[C@@H](C)CC)nn3)CC2)nc(N2CCN(C(=O)CCCCCCCCCCNC(=O)[C@@H]([C@H](C)CC)n3cc(CCCCCN)nn3)CC2)n1 | – | active: 10 µM |
| O=C1NC[C@H](c2ccccc2)OC(=O)[C@@H](Cc2ccc(F)cc2)CC/C=C/C[C@@H]1CC(=O)N(CCO)Cc1ccccc1 | inactive: -4.87% | – |
| O=C(N/C(=C\c1cccnc1)C(=O)N1CCOCC1)c1ccco1 | inactive: 2.26% | – |
| C=CC[C@H](CC(=O)OC(C)(C)C)C(=O)OC[C@@H]1CCCN1C(=O)[C@@H](CC=C)CC(=O)N[C@H](CO)Cc1ccccc1 | inactive: 2.57% | – |
| CC(C)(C)OC(=O)C[C@@H]1C/C=C\C[C@@H](CC(=O)N(CCO)Cc2ccccc2)C(=O)NC[C@H](c2ccccc2)OC1=O | inactive: 6.52% | – |
| CCCCc1ccc(/C=C2\C(=O)ON=C2c2ccccc2)s1 | inactive: 1.57% | – |
| CC(C)(C)OC(=O)C[C@@H]1C/C=C\C[C@H](CC(=O)N(CCO)Cc2ccccc2)C(=O)NC[C@H](c2ccccc2)OC1=O | inactive: 2.9% | – |
| O=C1NC[C@@H](c2ccccc2)OC(=O)[C@H](Cc2ccc(F)cc2)CC/C=C/C[C@H]1CC(=O)N(CCO)Cc1ccccc1 | inactive: -0.544% | – |
| CCCOC(=O)CCCC[C@H]1SC[C@@H](NC(=O)OC)[C@H]1NC(=O)OC | inactive: 0.105% | – |
| O=C(Nc1cccc(C(F)(F)F)c1)/C(=C/c1ccco1)NC(=O)c1cccs1 | inactive: -0.194% | – |
| CC(C)(C)OC(=O)C[C@H]1C/C=C\C[C@@H](CC(=O)N(CCO)Cc2ccccc2)C(=O)NC[C@@H](c2ccccc2)OC1=O | inactive: -0.498% | – |

| SMILES | activity change, negative = inhibition | Potency |
| --- | --- | --- |
| C=CC[C@H](CC(=O)N(CCO)Cc1ccccc1)C(=O)NCCOC(=O)[C@@H](CC=C)CC(=O)OC(C)(C)C | inactive: 3.83% | – |
| C#CCOCCOCCOCCNc1nc(N2CCN(C(=O)CCCCCCCCCCNC(=O)[C@H](CCCCN)n3cc(C)nn3)CC2)nc(N2CCN(C(=O)CCCCCCCCCCNC(=O)[C@H](CCCN=C(N)N)n3cc(C[C@@H](C)CC)nn3)CC2)n1 | – | active: 11.2 µM |
| O=C1OC[C@@H]2CCCN2C(=O)[C@H](CC(=O)N(CCO)Cc2ccccc2)C/C=C\C[C@H]1Cc1ccc(F)cc1 | inactive: 3.7% | – |
| CC(C)(C)OC(=O)C[C@@H]1C/C=C\C[C@@H](CC(=O)N(CCO)Cc2ccccc2)C(=O)NC[C@@H](c2ccccc2)OC1=O | inactive: 3.41% | – |
| N=C1C(c2nc3ccccc3c(=O)[nH]2)=C(O)CN1CCc1ccccc1 | – | active: 0.794 µM |
| O=C1NC[C@@H](c2ccccc2)OC(=O)[C@@H](Cc2ccc(F)cc2)CC/C=C/C[C@H]1CC(=O)N(CCO)Cc1ccccc1 | inactive: -20% | – |
| C=CC[C@@H](CC(=O)N[C@@H](CO)Cc1ccccc1)C(=O)N[C@@H](COC(=O)[C@@H](CC=C)CC(=O)OC(C)(C)C)Cc1c[nH]c2ccccc12 | inactive: -3.28% | – |
| C=CC[C@@H](CC(=O)N[C@@H](CO)Cc1ccccc1)C(=O)N[C@H](COC(=O)[C@H](CC=C)CC(=O)OC(C)(C)C)Cc1c[nH]c2ccccc12 | inactive: 0.66% | – |
| CC(C)NC(=O)/C(C#N)=C\c1ccc(N(C)C)o1 | inactive: 1.54% | – |
| CC(C)c1ccc2c(c1)c(SC(C)(C)C)c(CC(C)(C)C(=O)O)n2Cc1ccc(Cl)cc1 | inactive: 6.08% | – |
| C=CC[C@H](CC(=O)N(CCO)Cc1ccccc1)C(=O)N[C@@H](C)COC(=O)[C@H](CC=C)CC(=O)OC(C)(C)C | inactive: 3.69% | – |
| C#CCOCCOCCOCCNc1nc(N2CCN(C(=O)CCCCCCCCCCNC(=O)[C@H]([C@@H](C)CC)n3cc(CCCCN=C(N)N)nn3)CC2)nc(N2CCN(C(=O)CCCCCCCCCCNC(=O)[C@H](CCCN=C(N)N)n3cc(C[C@@H](C)CC)nn3)CC2)n1 | – | active: 11.2 µM |
| C=CC[C@H](CC(=O)N[C@H](CO)Cc1ccccc1)C(=O)N[C@@H](COC(=O)[C@H](CC=C)CC(=O)OC(C)(C)C)Cc1c[nH]c2ccccc12 | inactive: 4.12% | – |
| CCO[C@@H]1OC(C(=O)N2CCCCCCC2)=C[C@H](c2ccc(C(F)(F)F)cc2)[C@H]1CCCO | inactive: 0.576% | – |
| O=C1NC[C@H](c2ccccc2)OC(=O)[C@H](Cc2ccc(F)cc2)CC/C=C/C[C@H]1CC(=O)N(CCO)Cc1ccccc1 | inactive: -5.22% | – |
| C=CC[C@@H](CC(=O)OC(C)(C)C)C(=O)OC[C@@H]1CCCN1C(=O)[C@@H](CC=C)CC(=O)N[C@@H](CO)Cc1ccccc1 | inactive: -1.71% | – |
| CC(C)(C)OC(=O)C[C@H]1C/C=C\C[C@@H](CC(=O)N(CCO)Cc2ccccc2)C(=O)NC[C@H](c2ccccc2)OC1=O | inactive: 5.47% | – |
| Cc1ccc(S(=O)(=O)N2[C@@H](c3ccccc3F)C(C(=O)O)=CC[C@H]2c2ccc(Cl)c(Cl)c2)cc1 | – | active: 11.2 µM |
| C=CC[C@@H](CC(=O)OC(C)(C)C)C(=O)OC[C@@H]1CCCN1C(=O)[C@@H](CC=C)CC(=O)N[C@H](CO)Cc1ccccc1 | inactive: -0.177% | – |
| C=CC[C@@H](CC(=O)N(CCO)Cc1ccccc1)C(=O)N[C@@H](C)COC(=O)[C@@H](CC=C)CC(=O)OC(C)(C)C | inactive: 1.23% | – |
| C=CC[C@H](CC(=O)N[C@H](CO)Cc1ccccc1)C(=O)N[C@H](COC(=O)[C@H](CC=C)CC(=O)OC(C)(C)C)Cc1c[nH]c2ccccc12 | inactive: 0.946% | – |
| O=C1NC[C@H](c2ccccc2)OC(=O)[C@@H](Cc2ccc(F)cc2)CC/C=C/C[C@H]1CC(=O)N(CCO)Cc1ccccc1 | inactive: -4.91% | – |
| C=CC[C@@H](CC(=O)OC(C)(C)C)C(=O)OC[C@H]1CCCN1C(=O)[C@@H](CC=C)CC(=O)N[C@H](CO)Cc1ccccc1 | inactive: -0.984% | – |
| O=C1NC[C@H](c2ccccc2)OC(=O)[C@H](Cc2ccc(F)cc2)CC/C=C/C[C@@H]1CC(=O)N(CCO)Cc1ccccc1 | inactive: -14.1% | – |
| C=CC[C@@H](CC(=O)N[C@H](CO)Cc1ccccc1)C(=O)N[C@H](COC(=O)[C@@H](CC=C)CC(=O)OC(C)(C)C)Cc1c[nH]c2ccccc12 | inactive: 1.56% | – |
| C=CC[C@H](CC(=O)N(CCO)Cc1ccccc1)C(=O)NCCOC(=O)[C@H](CC=C)CC(=O)OC(C)(C)C | inactive: 1.07% | – |
| O=[N+]([O-])/C(C(Cl)=C(Cl)Cl)=C(/Sc1ccccc1)N1CCCCC1 | inactive: 0.0212% | – |
